Results as given in PubChem BioAssay AID504332 (National Center for Advancing Translational Sciences (NCATS), 2011).
Out of some 350,000 compounds screened, about 31,000 (8.9%) were called active. Inconclusive results, whose numbers are uncertain, are shown with a selection of clear calls. The call rests on the fitted dose curve; in most records, active means well fitted inhibition curve with a large enough effect; inconclusive means small, poorly fitted or top-dose-only effect; inactive means no such curve, though single readings can be large or run the other way. A potency beside an inconclusive call is a rough fit, not a confirmed value.

The molecules below were run against Histone-lysine N-methyltransferase EHMT2 (Homo sapiens) (UniProt Q96KQ7) (assay: qHTS Assay for Inhibitors of Histone Lysine Methyltransferase G9a). Conditions: G9a H3K9 monomethylation, AlphaScreen, 2 h; activity, negative = inhibition: at 59 µM (top of the series) unless noted.
Chain of UniProt Q96KQ7 (Q96KQ7 whole entry, looked up): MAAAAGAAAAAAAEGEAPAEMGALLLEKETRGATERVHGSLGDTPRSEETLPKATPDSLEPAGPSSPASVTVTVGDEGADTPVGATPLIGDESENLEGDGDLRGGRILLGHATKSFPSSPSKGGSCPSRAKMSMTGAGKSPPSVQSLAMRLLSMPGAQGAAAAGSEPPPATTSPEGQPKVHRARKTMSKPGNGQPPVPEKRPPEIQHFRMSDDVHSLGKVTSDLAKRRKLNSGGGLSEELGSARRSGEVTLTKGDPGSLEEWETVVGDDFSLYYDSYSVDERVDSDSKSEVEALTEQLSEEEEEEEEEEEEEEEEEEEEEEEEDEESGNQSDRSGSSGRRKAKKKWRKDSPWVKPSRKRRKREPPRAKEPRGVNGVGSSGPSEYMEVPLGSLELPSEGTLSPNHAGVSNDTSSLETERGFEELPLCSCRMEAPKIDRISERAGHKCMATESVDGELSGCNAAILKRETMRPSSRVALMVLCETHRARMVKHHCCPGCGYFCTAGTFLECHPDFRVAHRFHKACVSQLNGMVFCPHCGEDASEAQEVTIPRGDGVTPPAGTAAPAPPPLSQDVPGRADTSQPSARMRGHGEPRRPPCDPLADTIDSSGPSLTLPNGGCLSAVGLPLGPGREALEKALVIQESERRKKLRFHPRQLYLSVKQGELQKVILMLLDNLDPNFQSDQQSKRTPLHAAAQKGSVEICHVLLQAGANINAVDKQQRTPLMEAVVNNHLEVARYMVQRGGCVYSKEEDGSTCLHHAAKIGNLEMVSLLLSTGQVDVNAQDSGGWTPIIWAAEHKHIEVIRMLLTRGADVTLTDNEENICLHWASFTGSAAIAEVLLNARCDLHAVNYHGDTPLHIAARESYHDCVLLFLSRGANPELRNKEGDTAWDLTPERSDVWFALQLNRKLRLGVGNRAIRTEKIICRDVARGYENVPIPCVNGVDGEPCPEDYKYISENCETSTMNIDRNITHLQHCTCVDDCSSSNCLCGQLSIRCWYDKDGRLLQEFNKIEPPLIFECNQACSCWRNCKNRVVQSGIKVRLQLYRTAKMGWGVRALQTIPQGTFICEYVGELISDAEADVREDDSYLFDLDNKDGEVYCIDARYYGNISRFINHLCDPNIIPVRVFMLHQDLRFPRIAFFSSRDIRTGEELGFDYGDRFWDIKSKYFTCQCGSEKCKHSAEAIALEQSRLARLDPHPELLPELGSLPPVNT
Procedure, shortened: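 Enzyme 20 nM + cpd, 15 min RT; add b-H3K9 pep 500 nM / SAM 20 uM; 2 h RT; anti-H3K9me1 Ab 0.5 ug/mL + SA donor / anti-rabbit acceptor beads 20 ug/mL each, 10 min; AlphaScreen read.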
Further: nearly all actives have a fitted effect of over 75% in size.
On the % scale 0 is the no-effect control and ±100 the full control effect; potency means the concentration at half of the fitted maximal effect; tags describe the fitted curve by direction and shape.

| Compound | Potency | activity, negative = inhibition |
| --- | --- | --- |
| CCOC(=O)c1[nH]c(CSc2nnnn2-c2ccccc2C)c(C(=O)OCC)c1C | inconclusive: 0.251 µM [inhibitor, partial curve, poor fit] | – |
| CCc1ccc2oc(C(=O)N(Cc3cccc(Cl)c3)Cc3ccco3)c(C)c2c1 | – | inactive: 56% |
| Cn1c(=O)cc(SCC(=O)NCCc2ccc(Cl)cc2)c2cc(Cl)ccc21 | – | inactive: 2.26% |
| CCC1CCCCN1Cc1nc2c(c(=O)n(C)c(=O)n2C)n1CCCc1ccccc1 (stereo unspecified) | inconclusive: 7.94 µM [inhibitor, partial curve, poor fit] | – |
| CC12CCC(C(=O)NCc3ccc4c(c3)OCO4)(C(=O)C1=O)C2(C)C (stereo unspecified) | active: 44.7 µM | – |
| CCOc1ccc(-c2nc(CSCC(=O)NCCc3ccccc3)c(C)o2)cc1 | – | inactive: -28.3% |
| Clc1cccc(N2CCN(c3nc4ccccc4c4nc(-c5ccccc5)nn34)CC2)c1 | – | inactive: 8.63% |
| CC1CCN(S(=O)(=O)c2ccc(S(=O)(=O)N3CCC4(CC3)OCCO4)cc2)CC1 | active: 11.2 µM | – |
| CC1Cc2nc(SCC(=O)N3CCCc4ccccc43)n(C)c(=O)c2S1 (stereo unspecified) | – | inactive: 3.47% |
| NNS(=O)(=O)c1ccc(Cc2ncc(C(F)(F)F)cc2Cl)s1 | inconclusive: 25.1 µM [inhibitor, partial curve, poor fit] | – |
| Cc1cc(/C=N/NC(N)=S)c(C)n1-c1cccc(Cl)c1 | active: 44.7 µM | – |
| O=C(O)C1=CC[C@@H](c2ccc(Cl)cc2)N(S(=O)(=O)c2ccc(Cl)cc2)[C@H]1c1ccc(F)cc1 | – | inconclusive: -73.5% [inhibitor] [at 2.33 µM] |
| Nc1cc(N)nc(SCC(=O)NCc2ccco2)n1 | – | inactive: -11.3% [at 102 µM] |
| CC(C)NC(=O)c1onc(CSc2ccc(F)cc2)c1C(=O)NC(C)C | – | inconclusive: -134% [inhibitor] [at 2.33 µM] |
| COc1cccc(-c2nc(S(=O)(=O)c3ccc(C)cc3)c(NCc3ccccc3)o2)c1 | – | inactive: -39.8% |
| Cc1ccc2cc(C(c3nnnn3C3CCCC3)N(Cc3ccccc3)Cc3ccco3)c(=O)[nH]c2c1 (stereo unspecified) | inconclusive: 39.8 µM [inhibitor, single point] | – |
| C/C(=N\NC(=S)NC1CCCCC1)c1cccs1 | inconclusive: 50.1 µM [inhibitor, partial curve, poor fit] | – |
| O=C(/C=C/c1ccco1)OCn1nnc2ccccc2c1=O | active: 35.5 µM | – |
| Cc1nc(Nc2ccc(C(=O)O)cc2)nc(Nc2ccc(C(=O)O)cc2)c1[N+](=O)[O-] | active: 44.7 µM | – |
| O=C(Nc1ccc(F)cc1)c1ccc2ncsc2c1 | active: 35.5 µM | – |
| O=C(CCCN1C(=O)c2ccccc2C1=O)NC1CCCCCC1 | – | inactive: 11.4% [at 12.7 µM] |
| c1csc(C2Nc3ccccc3-c3nc4ccccc4n32)c1 (stereo unspecified) | – | inactive: 7.01% |
| COc1ccccc1NC(=O)CCc1nnc2ccc(NCc3ccco3)nn12 | – | inactive: 11% [at 102 µM] |

| Compound | Potency | activity, negative = inhibition |
| --- | --- | --- |
| COc1ccc(C(=O)N2CCC(C(=O)N3CCN(c4ccc(OC)cc4)CC3)CC2)cc1 | inconclusive: 89.1 µM [inhibitor, single point] | – |
| COc1ccccc1N1CCN(CC(=O)c2c(C)[nH]c3cc(C)ccc23)CC1 | inconclusive: 89.1 µM [inhibitor, single point] | – |
| CC(=O)c1sc(NC(=O)C2CCN(c3ncnc4sc(C)c(C)c34)CC2)nc1-c1ccccc1 | inconclusive: 11.2 µM [inhibitor, partial curve] | – |
| COc1ccc(O)c(C2(O)C(=O)c3ccccc3C2=O)c1 | – | inactive: 4.05% [at 102 µM] |
| CC(C)S(=O)(=O)c1csc(NC(=O)Nc2ccc(Cl)cc2)c1 | inconclusive: 39.8 µM [inhibitor, partial curve] | – |
| Cc1cc(NC(=O)CSc2nnnn2-c2ccc(C)c(Cl)c2)no1 | active: 44.7 µM | – |
| CC(NC(=O)CCNS(=O)(=O)c1ccc2c(c1)oc(=O)n2C)c1ccccc1 (stereo unspecified) | – | inactive: 22.9% [at 102 µM] |
| COc1ccc(-n2c(SCC(=O)/C(C#N)=C(\C)N)nc3ccccc3c2=O)cc1OC | inconclusive: 50.1 µM [inhibitor, partial curve, poor fit] | – |
| CCc1ccc2c(c1)c(=O)c(S(=O)(=O)c1ccccc1)cn2CC(=O)Nc1cc(C)ccc1C | – | inactive: -0.0169% |
| COc1ccc(Cl)cc1NC(=O)c1cc(=O)c2cc(C)cc(C)c2o1 | – | inactive: 8.21% |
| O=C(NCc1ccco1)c1ccc(N2CCOCC2)c([N+](=O)[O-])c1 | inconclusive: 39.8 µM [inhibitor, single point] | – |
| COc1ccc(Br)cc1/C=c1\sc2nc(-c3ccco3)nn2c1=O | inconclusive: 3.16 µM [inhibitor, partial curve, poor fit] | – |
| O=[N+]([O-])c1ccc(N2CCN(S(=O)(=O)c3ccccc3)CC2)cc1NCCN1CCOCC1 | active: 20 µM | – |
| N#C/C(=C\c1ccc(Cl)c([N+](=O)[O-])c1)c1ccccn1 | inconclusive: 50.1 µM [inhibitor, partial curve, poor fit] | – |
| Cc1ccc(-c2csc(NCCn3c(C(F)(F)F)nc4ccccc43)n2)cc1 | inconclusive: 70.8 µM [inhibitor, single point] | – |
| CCOc1ncccc1C(=O)Nc1ccc(C(=O)Nc2ccc(OC)cc2)cc1 | inconclusive: 5.62 µM [inhibitor, single point] | – |
| O=C1c2cccc3cccc(c23)C(=O)N1CCN1CCN(CC(O)COc2ccc3ccccc3c2)CC1 (stereo unspecified) | inconclusive: 39.8 µM [inhibitor, single point] | – |
| N#CCCN(C(=O)COC(=O)CCc1c[nH]c2ccccc12)c1ccccc1 | – | inconclusive: -53.1% [inhibitor] [at 0.501 µM] |
| CCCOc1ccc(N2C(=O)C3C(C(C)C)NC4(C(=O)c5ccccc5C4=O)C3C2=O)cc1 (stereo unspecified) | inconclusive: 28.2 µM [inhibitor, single point] | – |
| Cc1ccc(C(=O)N2CCN(S(=O)(=O)c3ccc(C(C)C)cc3)CC2)s1 | inconclusive: 50.1 µM [inhibitor, partial curve] | – |
| O=c1oc2cc(O[C@@H]3OC[C@@H](O)[C@H](O)[C@H]3O)ccc2c2ccccc12 | – | inactive: -7.93% [at 102 µM] |
| Cc1ccc(C(=O)NC2(O)C(=O)c3ccccc3C2=O)cc1C | active: 50.1 µM | – |
| COC(=O)c1c(NC(=O)COc2ccc(OC)cc2)sc2c1CCC(C)C2 (stereo unspecified) | – | inactive: -23.6% |
